PubChem BioAssay AID1347165 (National Center for Advancing Translational Sciences (NCATS), 2019)
Among all 220,000 compounds or so, about 5,700 (2.6%) were called active. The inconclusive results got no clear call from the source; some entries with a clear call stand among them for comparison. Calls follow the shape of the dose curve; as a rule, active = well fitted inhibition curve with a large enough effect; inconclusive = small, poorly fitted or top-dose-only effect; inactive = no such curve, though single readings can be large or run the other way. Where the call is inconclusive, the potency comes from a doubtful curve fit.

biological target: Lysine-specific demethylase 5B (Homo sapiens) (UniProt Q9UGL1); assay: Primary screen for KDM5B Histone Demethylases FDH-coupled qHTS; settings: FDH-coupled NADH fluorescence (FDH is formaldehyde dehydrogenase); activity change, negative = inhibition: at 57.7 µM (top of the series) unless noted; also: nearly all actives have a fitted effect of over 70% in size; as to activity change, negative = inhibition: 0% is about no effect
UniProt Q9UGL1, sequence (Q9UGL1 whole entry, looked up): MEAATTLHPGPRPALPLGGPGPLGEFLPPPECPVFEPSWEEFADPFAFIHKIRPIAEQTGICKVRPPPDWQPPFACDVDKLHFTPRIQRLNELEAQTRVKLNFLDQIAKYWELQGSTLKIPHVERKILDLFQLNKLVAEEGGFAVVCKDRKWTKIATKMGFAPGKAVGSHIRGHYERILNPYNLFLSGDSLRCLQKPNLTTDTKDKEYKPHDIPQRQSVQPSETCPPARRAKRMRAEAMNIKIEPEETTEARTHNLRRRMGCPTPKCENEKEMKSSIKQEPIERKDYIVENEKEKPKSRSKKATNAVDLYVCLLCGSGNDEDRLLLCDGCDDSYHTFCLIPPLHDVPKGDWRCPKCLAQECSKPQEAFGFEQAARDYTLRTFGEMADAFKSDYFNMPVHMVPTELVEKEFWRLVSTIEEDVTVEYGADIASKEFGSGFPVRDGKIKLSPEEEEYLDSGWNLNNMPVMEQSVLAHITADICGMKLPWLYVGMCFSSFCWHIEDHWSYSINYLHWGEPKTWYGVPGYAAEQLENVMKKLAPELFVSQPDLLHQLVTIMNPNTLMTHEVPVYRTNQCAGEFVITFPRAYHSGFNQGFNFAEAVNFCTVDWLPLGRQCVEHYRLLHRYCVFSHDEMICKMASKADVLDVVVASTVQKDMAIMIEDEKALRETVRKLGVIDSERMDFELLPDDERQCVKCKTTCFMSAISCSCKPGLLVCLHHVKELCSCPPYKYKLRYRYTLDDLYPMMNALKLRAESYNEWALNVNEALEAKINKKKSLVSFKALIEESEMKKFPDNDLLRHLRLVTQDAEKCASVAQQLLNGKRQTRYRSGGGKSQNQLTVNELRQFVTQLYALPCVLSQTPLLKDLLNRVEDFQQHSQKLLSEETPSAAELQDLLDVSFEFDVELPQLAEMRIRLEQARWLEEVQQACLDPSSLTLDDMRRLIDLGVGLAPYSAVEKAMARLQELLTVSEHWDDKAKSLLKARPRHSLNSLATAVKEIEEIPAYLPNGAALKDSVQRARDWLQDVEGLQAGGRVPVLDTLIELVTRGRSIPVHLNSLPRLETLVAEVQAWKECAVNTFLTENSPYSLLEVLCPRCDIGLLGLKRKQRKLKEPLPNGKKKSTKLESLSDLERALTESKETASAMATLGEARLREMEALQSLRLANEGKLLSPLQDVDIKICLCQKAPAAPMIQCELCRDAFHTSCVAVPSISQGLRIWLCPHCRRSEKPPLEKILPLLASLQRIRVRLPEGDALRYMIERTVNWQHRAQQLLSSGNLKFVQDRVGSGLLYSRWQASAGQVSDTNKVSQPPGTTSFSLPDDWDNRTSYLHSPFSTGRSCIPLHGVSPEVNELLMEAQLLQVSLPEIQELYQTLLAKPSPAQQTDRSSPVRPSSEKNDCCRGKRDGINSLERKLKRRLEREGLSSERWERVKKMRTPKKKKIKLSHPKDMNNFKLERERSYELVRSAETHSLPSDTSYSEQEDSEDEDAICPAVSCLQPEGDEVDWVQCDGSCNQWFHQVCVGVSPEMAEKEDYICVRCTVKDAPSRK
Summary of the method: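 KDM5BΔAP (200 nM final) in 50 mM HEPES pH 7.5, 0.01% Tween-20 was preincubated 10 min at RT with compound over a concentration range. Substrate mix (H3K4me3 12.5 µM, α-KG 25 µM, Fe²⁺, ascorbate, NAD⁺, FDH) was added, and NADH fluorescence change over 30 min gave dose-response curves.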
Potency is read from the fitted curve at half-maximal effect; tags tell the direction and shape of the fitted curve.

SMILES | Potency | activity change, negative = inhibition
CCCn1c2ccc(F)cc2c2nnc(SCCN3CCCCC3)nc21 | inconclusive: 4.47 µM [inhibitor, partial curve, poor fit] | 
CCn1nc(C(=O)NCC(C)(C)N2CCCCC2)c2ccccc2c1=O | inactive | 
FC(F)Oc1ccccc1CN1CCCC12CCN(c1ncccn1)CC2 | inconclusive: 22.4 µM [inhibitor, single point] | 
COC(=O)[C@@H]1Cc2ncn(C(C)C)c2CN1S(=O)(=O)c1ccc([N+](=O)[O-])cc1 | inconclusive: 50.1 µM [inhibitor, partial curve, poor fit] | 
COc1cccc(-n2c(=O)c3cc(OC)c(OC)cc3n(CC(=O)Nc3ccc(F)cc3)c2=O)c1 | inconclusive: 25.1 µM [inhibitor, partial curve, poor fit] | 
COc1ccc(-c2noc(CCC(=O)N(C)c3cc(Cl)ccc3OC)n2)cc1 | inconclusive: 44.7 µM [inhibitor, single point] | 
CCN(CC)c1ccc(C=Nc2c(C)cc(C)cc2C)cc1 | inconclusive: 17.8 µM [inhibitor, partial curve, poor fit] | 
O=[S+]([O-])(Nc1nncs1)c1ccc2c(c1)OCCN(Cc1cccs1)C2 | inactive | 
CC(C)OCCNc1nccc(C2(c3ccccc3Cl)CCNCC2)n1 | inconclusive: 31.6 µM [inhibitor, partial curve, poor fit] | 
O=C(NCC1CCCO1)c1ccc(-c2ccc(N3CCCCC3)nc2)cc1 (configuration not stated) | inconclusive: 35.5 µM [inhibitor, partial curve, poor fit] | 
CN(C)C(=O)CCc1c(-c2ccc(F)cc2)[nH]c2ccccc12 | inconclusive: 28.2 µM [inhibitor, partial curve, poor fit] | 
COc1ccccc1-c1nc(S(=O)(=O)c2ccc3c(c2)OCCO3)c(NC(C)C)o1 | inconclusive: 35.5 µM [inhibitor, single point] | 
CCNc1c(NS(=O)(=O)c2ccc(F)c(C)c2)c(=O)oc2ccccc12 | inconclusive: 14.1 µM [inhibitor, partial curve, poor fit] | 
O=C(NCc1ccc(F)cc1)c1ccc(N2CC3CC(C2)[C@H]2CCCC(=O)N2C3)nc1 (some centres not stated) | inconclusive: 39.8 µM [inhibitor, partial curve, poor fit] | 
Cc1cc(C)cc(C(=O)N2CCN(c3cc(-c4ccc(Cl)cc4)[nH]n3)CC2)c1 | inconclusive: 22.4 µM [inhibitor, partial curve] | 
CCOc1cc2ccccc2cc1C(=O)Nc1nnc(CC)s1 | inconclusive: 1.78 µM [inhibitor, partial curve, poor fit] | 
CCN(CCO)C(=S)Nc1cccc(C)c1 | inactive | 
COc1ccc(C(=O)Nc2ccc(-c3noc([C@@H]4CCCN4Cc4ccc(OC(F)(F)F)cc4)n3)cn2)cc1 | inconclusive: 14.1 µM [inhibitor, partial curve, poor fit] | 
O=C1CN(C(=O)c2cnc3ccccn3c2=O)CCN1Cc1ccc(F)cc1 | active: 28.2 µM | 
Cc1ccc([C@H]2CN(C(=O)Cn3nc(C)c4ccccc4c3=O)C[C@@H]2N)o1 | inconclusive: 22.4 µM [inhibitor, partial curve, poor fit] | 
Cc1oc(-c2ccccc2)nc1CC(=O)NCCN(C(C)C)C(C)C | inactive | 

SMILES | Potency | activity change, negative = inhibition
CC(=O)Nc1ccc(/C=C/c2noc(-c3ccccc3O)n2)cc1 | inconclusive: 3.16 µM [inhibitor, full curve, poor fit] | 
Cc1cc(Cl)cc(Cl)c1OCC(=O)Nc1cccc(NC(=O)c2ccco2)c1 | inconclusive: 39.8 µM [inhibitor, single point] | 
COc1ccc(-c2nc3c(c(SCC(=O)N4CCCCC4)n2)Cc2cc(C)ccc2O3)cc1 | inconclusive: 28.2 µM [inhibitor, single point] | 
CC(Nc1ccc(N)cc1Cl)c1ccccc1 (configuration not stated) | inconclusive: 39.8 µM [inhibitor, single point] | 
Cc1cc(C)nc(N2CC3(COCC(=O)N(Cc4cccc(OC(F)(F)F)c4)C3)C2)n1 | inconclusive: 35.5 µM [inhibitor, partial curve, poor fit] | 
CC(Sc1nc2ccccc2o1)C(=O)NC1CCCC1 (configuration not stated) | inactive | 
COc1ccc(C(=O)Nc2ccc3c(c2)CN(CCc2ccccc2)C(=O)C(C)O3)cc1OC (configuration not stated) | inconclusive: 39.8 µM [inhibitor, single point] | 
COc1ccccc1CNCC(=O)Nc1ccc(C(F)(F)F)cc1 | inconclusive: 8.91 µM [inhibitor, full curve, poor fit] | 
CCOc1ccc(OCC)c(NC(=O)c2cc(S(=O)(=O)N3CCc4ccccc43)cn2C)c1 | inconclusive: 22.4 µM [inhibitor, partial curve, poor fit] | 
Cc1cc(=O)oc2c(C)c(OC(C)C(=O)NCc3ccc(S(N)(=O)=O)cc3)ccc12 (configuration not stated) | inconclusive: 28.2 µM [inhibitor, single point] | 
COC(=O)c1cc2ccccc2cc1OS(=O)(=O)c1ccc(C)cc1C | inconclusive: 35.5 µM [inhibitor, single point] | 
CN(C)c1cccc(C(=O)Nc2ccc3c(N4CCOCC4)ncnc3c2)c1 | inconclusive: 7.94 µM [inhibitor, partial curve] | 
COc1cccc(NC(=O)c2cccc3c(=O)c4c([nH]c23)CCCC4)c1 |  | inconclusive: -30.2% [inhibitor]
COc1ccc(NC(=O)N2CCCC(Cn3cnc4cccnc43)C2)c(C)c1 (configuration not stated) | inactive | 
Cc1ccc(S(=O)(=O)CC(=O)Nc2nc3c(C)cc(C)cc3s2)cc1 | inconclusive: 39.8 µM [inhibitor, single point] | 
Cc1ccc2cc3cc(C(=O)NC4CCCCCC4)sc3nc2c1 | inactive | 
CCCN1CCN(CCCNC(=O)c2cc3c(=O)n(CC)c4ccccc4c3s2)CC1 | inconclusive: 31.6 µM [inhibitor, partial curve, poor fit] | 
CC(C)(O)C#Cc1ccc(CN2CCC(CO)(CCCc3ccccc3)CC2)cc1 | inconclusive: 20 µM [inhibitor, partial curve, poor fit] | 
COCCNc1ncccc1-c1noc([C@@H]2CCCN2Cc2ccco2)n1 | active: 28.2 µM | 
O=C(CSc1ncnc2ccccc12)N(C1CCCCC1)C1CCS(=O)(=O)C1 (configuration not stated) | inactive | 
Cc1ccc(NC(=O)c2cc(S(=O)(=O)N3CCC4(CC3)OCCO4)ccc2F)cc1Cl | inconclusive: 8.91 µM [inhibitor, partial curve, poor fit] | 

SMILES | Potency | activity change, negative = inhibition
COc1ccc(CNC(=O)C2=C(c3ccccc3)c3cc(Cl)ccc3S(=O)(=O)N2C)cc1 | inactive | 
Cc1cc(F)ccc1NC(=O)CC(C)n1cccn1 (configuration not stated) | inactive | 
CCCCN(CCCNC(=O)c1cc(Nc2cccc(SC)c2)nc2ccccc12)Cc1ccccc1 | inconclusive: 28.2 µM [inhibitor, partial curve, poor fit] | 
COc1cc(OC)c(NC(=O)NC(C(=O)N2CCc3ccccc32)C(C)C)cc1Cl (configuration not stated) | inactive | 
O=C(CCc1ccnc(N2CCOCC2)c1)N1CCN(C(=O)c2ccco2)CC1 | inconclusive: 17.8 µM [inhibitor, partial curve] | 
COC(=O)c1c(NC(C)=O)c2c3c(sc2n1Cc1cc(C)ccc1C)CCCC3 | inactive | 
O=C(c1ccc(F)cc1)N1CCN(Cc2ccc(F)cc2)CC1 | inconclusive: 22.4 µM [inhibitor, partial curve, poor fit] | 
Cc1[nH]nc2c1C(c1c(F)cccc1Cl)C1=C(COC1=O)N2 (configuration not stated) | inconclusive: 31.6 µM [inhibitor, partial curve, poor fit] | 
COCCN(CCOC)S(=O)(=O)c1ccc(C(=O)Nc2sc3c(c2C(=O)OC)CCN(C)C3)cc1 | inconclusive: 39.8 µM [inhibitor, single point] | 
CCN(CC)S(=O)(=O)c1cccc(C(=O)Nc2ccccc2C(=O)Nc2ccc(Cl)cc2)c1 | inconclusive: 39.8 µM [inhibitor, single point] | 
COc1ccc(-c2cc(N3CCCN(C(=O)c4ccc(C)cc4)CC3)n[nH]2)cc1 | inconclusive: 5.01 µM [inhibitor, single point] | 
O=C1NCCCCCCN(Cc2cccc(F)c2)[C@H]2CCC[C@@H]12 | inconclusive: 7.08 µM [inhibitor, partial curve] | 
Cc1ccc(C)c(NS(=O)(=O)c2cc3c(cc2C)n(C)c(=O)c(=O)n3C)c1 | inconclusive: 31.6 µM [inhibitor, partial curve, poor fit] | 
O=CC1=Cc2c(ccc3ccccc23)OC1 | inconclusive: 28.2 µM [inhibitor, partial curve, poor fit] | 
O=C(NCc1cccnc1)c1ccc2c(c1)N(C(=O)c1ccc(F)cc1)CC2 | inactive | 
CC1CCC(C(=O)Nc2ccc(-c3nnc4n3CCCC4)cc2)CC1 (configuration not stated) | inactive | 
COc1ccc(-c2cc3c(cn2)CN(Cc2cccnc2)CCN3)cc1OC | inconclusive: 35.5 µM [inhibitor, partial curve, poor fit] | 
c1coc(-c2nnc([C@H]3CCN(C4CCOCC4)C3)o2)c1 | inconclusive: 31.6 µM [inhibitor, partial curve, poor fit] | 
FC(F)(F)c1ccc(CN2CC[C@H](c3nnc(-c4ccccc4)o3)C2)cc1 | inconclusive: 35.5 µM [inhibitor, single point] | 
CCN1c2cc(C(=O)NCc3cccc(Br)c3)ccc2C(=O)N2CCCCC21 (configuration not stated) | inconclusive: 22.4 µM [inhibitor, partial curve, poor fit] | 
